To fix the notation:
B1: chr7:54825262:54825263:-_ENSG00000132432_ENST00000352861|hu_hu|hu_hu_hu_mus_False|1_28 (ssRNA)
RNA: GGGAGUUCUACAGUCCGACGAUCCUGCCGGCUGGGCUCCACAAACUGCAUUACCUGAUCCAUGUUUGUUGGAUGGCGGAUUGAGAGCGUAGAGACACGUAGCUCAGGGAGCUUGCUAGCCCAACGGAACCGGAAGCGGAAUCCCAACAGAGGAUUGAGCAUCA
B2: 9931817_9931937_345_CDS_ENSG00000101558_ENST00000340541|human|control|control (ssRNA)
RNA: GGGAGUUCUACAGUCCGACGAUCUGGGUCAAUAAUUCCACUGUUGGGCCUCACACAGUACCGGCGAGGUGCUGUAGUCUUCACUUUGAAACACACUUUUCUAUCCGAUGGAUUUCGCAAUUUAAGAUUUGUAGUGACUACAUCCAACAGAGGAUUGAGCAUCA
B3: 39667250_39668329_1538_CDS_ENSG00000130669_ENST00000435673|human|control|control (ssRNA)
RNA: GGGAGUUCUACAGUCCGACGAUCCGACCAGAUGUCUACCUCUGGCCCGUAGGGAAGGCGGGAGAUGAGCUCUGGGGCCAUCCAGUAGGGCGUGCCGACCAGCGACUUCCUUCGGGGCACUUCCUUGCUCACCUGGGCGCAGAACAACAGAGGAUUGAGCAUCA
B4: chr2:65331917:65331918:-_ENSG00000138069_ENST00000409751|hu_mus|motif|central (ssRNA)
RNA: GGGAGUUCUACAGUCCGACGAUCGAAAUCCACACCAAUUGUGCUGAUGUAGCUUUCCGUAUACGUAUCAUCUGCAAACCGGAGGAGAAGGCAGGACUUUCCAACCCCAGAAUCGCCAAUCAGAAGUAACUUGAAUAAAUAAUCCAACAGAGGAUUGAGCAUCA
B5: chr18:9315019:9315020:-_ENSMUSG00000024286_ENSMUST00000053917|mus_mus|motif|central (ssRNA)
RNA: GGGAGUUCUACAGUCCGACGAUCCAUACAAUUCUAAACUUUUCCACGCUCACACAGGAGGAGUAUAUGAUAAAGCAAAUGCGGGAAUUUAUCUCAAACAAGGAAAACCUCACAAACCUCGGUCACCGCAACCUAAGAUGGGCACAACAGAGGAUUGAGCAUCA
B6: chr8:141525804:141525805:+_ENSG00000104472_ENST00000220913|hu_mus|FALSE|FALSE (ssRNA)
RNA: GGGAGUUCUACAGUCCGACGAUCCUGUACAAUAAAACUGCAUAGUCCUUUUUUUAGAAAGCGAACAUCAAAGGUAGCACAGUAUGCAUGUAGUCUGUGAGAACAGUGUGUCCACGCGACUACACAGCUGCCAGGGAGCUUCCCCAACAGAGGAUUGAGCAUCA
B7: chr7:141450121:141450122:+_ENSG00000106028_ENST00000265304|hu_hu|FALSE|FALSE (ssRNA)
RNA: GGGAGUUCUACAGUCCGACGAUCUCAUCCUUUCUACUCCUUCUCUUUCGUCUGGUCACUCAGAAAUAUAAUAUUAUCAGCUAUGAUUGUUGUUGCUUGUCGCCUCACAUUAUUUUUAUCCAUGUAUUCACCAUAGUCUAUUUUCAACAGAGGAUUGAGCAUCA
B8: 70342072_70342192_62_3pUTR_ENSMUSG00000030465_ENSMUST00000120071|mouse|control|control (ssRNA)
RNA: GGGAGUUCUACAGUCCGACGAUCAAUGCUGAAGGAACUCUGCCGCUUGUACUCCAGCAGCUCCAAGCAGCUCCUGAGCAGCUCUGAGAUCGAUCGCCUUAGCUUAGGAAGCACCAGGCUGCCUCCCCCAGCAUCUUCAACUACCAACAGAGGAUUGAGCAUCA
B9: chr2:176857102:176857103:-_ENSG00000144320_ENST00000272748|hu_mus|FALSE|FALSE (ssRNA)
RNA: GGGAGUUCUACAGUCCGACGAUCAGAAUAGAUAAUUAAUCUUCCAACCCAUAAUUUUUGCAAUCUCUGAUUUUUUUCUCUAAAUUCUUCCAAUGCUUGAAUUUCCUUAUCUAUAUUUUCUAGAACUUCUACUGUUGAAGGUUUCAACAGAGGAUUGAGCAUCA
B10: chr1:220276048:220276049:+_ENSG00000067704_ENST00000302637|hu_hu|hu_hu_hu_mus_True|38_98 (ssRNA)
RNA: GGGAGUUCUACAGUCCGACGAUCGCAAAUUGCCUGGUUGGCUGGAAUUGUCCAAGGCUGGGUGGUCCAAACUAAAACGCUAACAGGGGAUGAGGCAUCUAUAAGAGACUCCAACUUCGGAGGAGGUCUCAGGAGGGGGAAUCUCAACAGAGGAUUGAGCAUCA
B11: 110106817_110108609_2615_CDS_ENSMUSG00000032481_ENSMUST00000088716|mouse|control|control (ssRNA)
RNA: GGGAGUUCUACAGUCCGACGAUCAACGUUUCCUUCCGAAAUCUCGUGUUCCACUUUCUUCUUCCCGGCAUCGCUUUCUCUUUCUUUACAUGUAUCAGUGAGCUCUUUGUUCUCUUCAUUCUCCUUUUCUUCUGGCUUGACAUCCAACAGAGGAUUGAGCAUCA
B12: chr1:66463027:66463028:+_ENSMUSG00000015222_ENSMUST00000114013|mus_mus|mus_mus_mus_hu_True|18_48 (ssRNA)
RNA: GGGAGUUCUACAGUCCGACGAUCUUUUCUUUCAGGAGUGGAAAUUCUGCCUCUCCCGGUUUUAAAAGGCUUUUCUUUUCUAUGUUUCUCGAGAGACGAUCUCCGAGCUUCCUUUUCAGCUCUCUCCUCUUUAGGAAUAGUUUCCAACAGAGGAUUGAGCAUCA
B13: 72332980_72347208_1028_CDS_ENSG00000157107_ENST00000430046|human|control|control (ssRNA)
RNA: GGGAGUUCUACAGUCCGACGAUCACUGUAGCCUUCUUCAUCUACAUCAGGAAUGUUCAAUGAAUCUGCAUCAGGACAUUCCACAGAUUCUGCAUCUUUUUCCUUUUUAAUGAUUCCUGGCAAAGCAAAGGUCUUUCUUUUCCUCAACAGAGGAUUGAGCAUCA
B14: chr2:152319639:152319640:+_ENSG00000080345_ENST00000243326|hu_hu|motif|central (ssRNA)
RNA: GGGAGUUCUACAGUCCGACGAUCUUGCCUCCGACUUGUAGGGUAUGGGGGAGUUCCAGCAACAGUGGUAUUAGAAACUGAACGGCUGCUGACAACGAAAGAAUUUUCUGUACUAGAUGCACAUUCAGUUGAUGUUUUCCUUGACAACAGAGGAUUGAGCAUCA
B15: chr6:86325054:86325055:-_ENSG00000135316_ENST00000355238|hu_mus|FALSE|FALSE (ssRNA)
RNA: GGGAGUUCUACAGUCCGACGAUCUCCACGCCCUCGACCUCUUGUUGGGGGAGGCAUAUGAGGUGGACCAUAAUAGUAGUAAUCAUCAUACAUUUGAUUCUUUGCUGCUUGCCUCUGAGCUUUUCUUUCUUUCCUCUUCUGAUCCAACAGAGGAUUGAGCAUCA
B16: 39923092_39923697_3682_CDS_ENSG00000183337_ENST00000397354|human|control|control (ssRNA)
RNA: GGGAGUUCUACAGUCCGACGAUCAGGAUGGAGCCCUUUAGAGACUCGUCGGCGUUUGGCUUUCAGCAGAGGGUCCUCUGGCACCUCCUCCGCAGUGGUCUCAGUGUGGCUGCUGUCACCUGAGACUUUGCGUUUCCUGUCCACCAACAGAGGAUUGAGCAUCA
B17: chr11:69480845:69480846:-_ENSMUSG00000059796_ENSMUST00000163666|mus_mus|FALSE|FALSE (ssRNA)
RNA: GGGAGUUCUACAGUCCGACGAUCUUCCUUCUUUUUGCCUCAAAAAGUGACAUUUAUUCAUAGAGAAAAAAAACUGAAACAAAAAAAAAAAAAGCCAAAACAAAAACAAGAUGUCCAUCCCUUGGCUCCCUCCCCUCCCCCCUCCAACAGAGGAUUGAGCAUCA
B18: 75306124_75306591_1986_CDS_ENSMUSG00000020850_ENSMUST00000102510|mouse|control|control (ssRNA)
RNA: GGGAGUUCUACAGUCCGACGAUCAAGGUUGCCCAGCCAUCGCUCUAGCAGAGGGGUAAUUCCACGCAUAAAGAACAGCCAGACCCGCCAGCCAGCAGCCCAGAAACCACAGCCAGGGCCUUUCCCUACAGGACCCGUGUUGAACAACAGAGGAUUGAGCAUCA
B19: chr1:39494564:39494565:+_ENSG00000168653_ENST00000372967|hu_hu|hu_hu_hu_mus_True|38_98 (ssRNA)
RNA: GGGAGUUCUACAGUCCGACGAUCAUGCAUUCGCCUCAUCGUUUUCUACCGAAGCAAGCACUCUUCGAAGUCAUCGAACUCUAUCUUGCACUCCUUUUCUGCCCGAGUCCCACCGAUCCCGUGUGCACACUCUAUCCACUCUUUCAACAGAGGAUUGAGCAUCA
B20: chr1:80268134:80268135:-_ENSMUSG00000004364_ENSMUST00000163119|mus_mus|FALSE|FALSE (ssRNA)
RNA: GGGAGUUCUACAGUCCGACGAUCGACUCUGUGUAGUUUAGAUGUGAAUUGAUCAUUAACUGUAAAUAUGUGGCCACUUUCUAUCUCCUUGGACUUGGGUUCUUUUGUGAGGACCCGCUGUGUUGGUUUACCACAGGCGAGGGACAACAGAGGAUUGAGCAUCA
B21: chr1:167535829:167535830:-_ENSMUSG00000026566_ENSMUST00000068705|mus_mus|FALSE|FALSE (ssRNA)
RNA: GGGAGUUCUACAGUCCGACGAUCAGGAGGAUUUUUGACAUCGCAGAUAUAGGUGCCAUUGUGAACAGCCUGAAUAUUUUCUAUAUUGAUUGAUGCAUCUUUCUUGUCAAGGUCCCCAGCCCAGGUGACUCGGUCUUUAAAUGGCAACAGAGGAUUGAGCAUCA
B22: chr1:84720644:84720645:-_ENSMUSG00000026219_ENSMUST00000027421|mus_mus|FALSE|FALSE (ssRNA)
RNA: GGGAGUUCUACAGUCCGACGAUCAUGAAUUUUAGAUUGUAUCUCAAUUUGAAUGAACACAGGAUGACAAGGCCUGGGGCUAAUGAAACUGUACGUGUUGUAUUUAAAAAGUAAAACAAACAAACAAAAACCAAACACCAAACCCAACAGAGGAUUGAGCAUCA

The other results are listed elsewhere or left out.

In this assay the target is T1, UNK ZnF1-3 (human, UniProt Q9C0B0 31-174).
T1 sequence: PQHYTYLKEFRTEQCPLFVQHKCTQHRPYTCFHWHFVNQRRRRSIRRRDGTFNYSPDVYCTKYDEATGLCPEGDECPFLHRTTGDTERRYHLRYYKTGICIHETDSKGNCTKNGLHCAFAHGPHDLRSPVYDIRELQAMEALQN
Description: nsRBNS (natural sequence RNA bind-n-seq); RBNS binding buffer (assumed for nsRBNS): 25 mM Tris pH 7.5, 150 mM KCl, 3 mM MgCl2, 0.01% Triton X-100, 500 ug/ml BSA, 20 U/ml SUPERase-In, 4 C; UNK is unkempt and MSI1 is Musashi-1; names of the RNAs are library labels; protein concentration not given here; high values mean tight binding.
As for B1, the binding signal was determined as 1.24 enrichment R.

B2 had a binding signal of 0.411 enrichment R.

Take B3: the binding signal was 0.88 enrichment R.

The molecule B4 yielded a binding signal of 1.35 enrichment R.

With B5, the binding signal is 1.62 enrichment R.

As for B6, the binding signal amounted to 0.613 enrichment R.

B7: the binding signal turned out to be 0.494 enrichment R.

In the case of B8, the binding signal is 0.706 enrichment R.

As for B9, the binding signal came to 0.461 enrichment R.

On to B10, for which the binding signal came to 1.58 enrichment R.

With B11, the binding signal was 0.337 enrichment R.

For the molecule B12, the binding signal came out at 0.388 enrichment R.

B13 gave a binding signal of 0.71 enrichment R.

B14 had a binding signal of 0.861 enrichment R.

The molecule B15 came in with a binding signal of 0.618 enrichment R.

B16 registered a binding signal of 1.16 enrichment R.

B17: the binding signal is 1.25 enrichment R.

As for B18, the binding signal was found to be 1.81 enrichment R.

Molecule B19 came in with a binding signal of 0.703 enrichment R.

Turning to B20, the binding signal worked out at 0.658 enrichment R.

In the case of B21, the binding signal was 1.17 enrichment R.

For the molecule B22, the binding signal stood at 1.63 enrichment R.

Source of the values: paper PMC12136788.
